Source: publication PMC4552532 (Physiological Reports, 2015)

Tests used:
[1] = NPY fluorescently labeled at residue 1, ref Khan et al. [2007]; cited from earlier work
Excerpt: Abid et al. proposed that the C-terminal tyrosine in NPY is cleaved off by plasma kallikrein. […] In contrast to the cleavage products found by Abid et al., and in agreement with the data presented here on PYY degradation, Khan et al. ([2007]) ...

[2] = In vitro degradation of PYY in porcine plasma; assay type: in vitro ADME, pig; conditions: 37°C
[3] = pig, in vivo
[4] = in situ perfusion of the rat liver, concentrations up to 500 pmol/L; ref Beckh et al. [1992]; cited from earlier work
Excerpt: An earlier study by Beckh et al., employing in situ perfusion of the rat liver, has shown a lower hepatic extraction of PYY (up to 10% in concentrations up to 500 pmol/L) (Beckh et al. [1992]), but the PYY assay they used most likely could not detect C-terminal changes; this would be in ...

[5] = In vitro degradation of PYY in porcine whole blood; assay type: in vitro ADME, pig; conditions: 37°C

NPY: Neuropeptide Y, PP-family peptide related to PYY; literature data of Khan et al.
peptide degraded after 24 h in human plasma [1]: 50%

PYY: Peptide YY immunoreactivity by side-viewing antibody, recognizes PYY1/3–36 and PYY1/3–34 equally; form not specified at the place
PYY preserved after 24 h with EDTA, plasma ([2]; heparinized porcine plasma, 24 h, + EDTA 10 mmol/L, RIA, degradation no longer first-order): more than 80%
share of total immunoactive PYY C-terminally truncated after 6 h, plasma ([2]; porcine plasma, 6 h, PYY3–34 RIA versus total PYY RIA): approximately 40%
hepatic extraction, total PYY assay [3]: no significant hepatic extraction
renal extraction ratio, total PYY assay [3]: about 20%
hepatic extraction of PYY in perfused rat liver [4]: up to 10%
PYY preserved after 24 h with EDTA, blood ([5]; heparinized porcine whole blood, 24 h, + EDTA 10 mmol/L, RIA, degradation no longer first-order): more than 80%
share of total immunoactive PYY C-terminally truncated after 6 h, blood ([5]; porcine blood, 6 h, PYY3–34 RIA versus total PYY RIA): approximately 40%
